Reference: PubChem BioAssay AID2147 (National Center for Advancing Translational Sciences (NCATS), 2009)
Among all 230,000 compounds or so, about 3,600 (1.6%) were called active. Inconclusive means that the source gave no clear call. Such entries were picked first, then a sample of the others. Calls come from the whole dose curve; as a rule, active = well fitted inhibition curve with a large enough effect (not every such curve was filed as active); inconclusive = small, poorly fitted or top-dose-only effect, or another doubt; inactive = no such curve, though single readings can be large or run the other way. Potencies of inconclusive entries are doubtful fits and often do not repeat.
Note: nearly all actives have a fitted effect of over 50% in size.
Potency is the fitted concentration of half-maximal effect; tags give direction and shape of the fitted curve.
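Throughout, for activity change, negative = inhibition: 0% = wells with enzyme and -100% = buffer wells without enzyme.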

These compounds were tested against Lysine-specific demethylase 4E (Homo sapiens) (UniProt B2RXH2) (assay: qHTS Assay for Inhibitors of Human Jumonji Domain Containing 2E (JMJD2E)). Details: JMJD2E catalytic domain, FDH-coupled NADH fluorescence (FDH is formaldehyde dehydrogenase); series mostly up to 57.1 µM; activity change, negative = inhibition: at the top concentration.
Chain of UniProt B2RXH2 (B2RXH2 whole entry, looked up, the tested form may be a part): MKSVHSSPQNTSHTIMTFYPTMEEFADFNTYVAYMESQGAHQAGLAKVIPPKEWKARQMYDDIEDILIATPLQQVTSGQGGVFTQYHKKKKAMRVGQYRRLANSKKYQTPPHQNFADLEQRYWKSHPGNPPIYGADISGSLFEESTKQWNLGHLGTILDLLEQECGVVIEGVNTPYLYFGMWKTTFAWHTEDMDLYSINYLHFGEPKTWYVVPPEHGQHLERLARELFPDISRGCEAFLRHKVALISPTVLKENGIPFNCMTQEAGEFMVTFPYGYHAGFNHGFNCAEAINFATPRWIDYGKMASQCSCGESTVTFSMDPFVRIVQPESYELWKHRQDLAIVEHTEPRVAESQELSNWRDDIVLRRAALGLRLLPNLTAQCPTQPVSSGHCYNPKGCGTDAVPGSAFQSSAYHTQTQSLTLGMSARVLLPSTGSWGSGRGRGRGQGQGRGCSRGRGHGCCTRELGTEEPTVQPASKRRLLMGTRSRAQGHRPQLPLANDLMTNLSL
In the case of `O=C(Cc1cc(=O)[nH][nH]1)N/N=C/c1c(F)cccc1Cl`, the “activity change, negative = inhibition” value is reported as inactive: 7.45%.
With `CCCCn1c(NS(=O)(=O)c2ccc(C)cc2)c(S(=O)(=O)c2ccccc2)c2nc3ccccc3nc21` the Potency was inconclusive: 3.98 µM [inhibitor, full curve].
For `O=[N+]([O-])c1cc(O)c2ncccc2c1`, the Potency was inconclusive: 2.82 µM [inhibitor, full curve, poor fit].
`Cc1n[nH]c(=S)n1-c1cccc(Cl)c1` was tested, and the “activity change, negative = inhibition” value was inactive: -7.43%.
For `CC(=O)Nc1ccc(/C=N/Nc2nc3ccccc3[nH]2)cc1`, the “activity change, negative = inhibition” value was inactive: -6.99%.
`COc1ccc(C2Nc3ccccc3C(=O)N2Cc2ccco2)cc1CN1C(=O)c2ccccc2C1=O` (stereo not given) was tested, and the Potency was “inactive”.
With `Cc1cccc2cncc(OCc3nnc(SC(F)F)n3C)c12` the Potency was inconclusive: 28.2 µM [inhibitor, partial curve].
With `COc1cccc(C(=O)N(C)c2nnc(-c3ccncc3)s2)c1` the Potency was inconclusive: 39.8 µM [inhibitor, single point].
For `O=C(O)c1ccc(N/N=C/c2cccc3cccnc23)cc1`, the Potency was inconclusive: 31.6 µM [inhibitor, single point].
For `COC(=O)C1=CO[C@@H](O[C@H]2OC(CO)C(O)C(O)C2O)C2C1CC(O)C2C` (stereo not given in full), the “activity change, negative = inhibition” value was inactive: 0.415%.
`COc1ccc(/C=C/c2nnc(NC(=O)COc3cccc(C)c3)s2)cc1` was tested, and the Potency was inconclusive: 6.31 µM [inhibitor, partial curve].
With `O=C(O)CCSc1nc2ccc(Br)cc2[nH]1` the Potency was inconclusive: 28.2 µM [inhibitor, single point].
With `N#CCCN1CCN(C(=S)c2ccc(-c3cc(Cl)ccc3Cl)o2)CC1` the “activity change, negative = inhibition” value was inactive: -2.68%.
For `S=c1[nH]nc(CSCc2ccccc2Cl)n1C1CCCCC1`, the “activity change, negative = inhibition” value was inactive: -4.34%.
With `Cc1ccc(Nc2nnc(SCc3cc(=O)n4ccsc4n3)s2)c(C)c1` the “activity change, negative = inhibition” value was inactive: -20.2%.
In the case of `N#Cc1ccc(N2C(=O)[C@@H]3C(C(=O)c4cnccn4)=NN[C@@H]3C2=O)cc1`, the Potency is reported as inconclusive: 39.8 µM [inhibitor, single point].
With `O=C(CCl)Nc1nc(-c2ccco2)c(-c2ccco2)s1` the Potency was inconclusive: 28.2 µM [inhibitor, single point].
`Cc1cc(C)n2cc(CSc3nnnn3-c3ccccc3C)nc2n1` was tested, and the Potency was inconclusive: 28.2 µM [inhibitor, single point].
With `CCOc1ccccc1NC(=O)CC1SC(=N)N(c2ccccc2)C1=O` (stereo not given) the “activity change, negative = inhibition” value was inactive: 19.4%.
For `O=Cc1ccc(-c2ccc(C(=O)O)cc2)o1`, the Potency was inconclusive: 28.2 µM [inhibitor, partial curve].
`CN(Cc1cc([N+](=O)[O-])c2cccnc2c1O)C1CCCCC1` was tested, and the Potency was inconclusive: 3.16 µM [inhibitor, single point].
With `CC1(C)Cc2ccccc2-c2nc(NCCO)n(-c3ccccc3)c(=O)c21` the Potency was inconclusive: 25.1 µM [inhibitor, partial curve].
For `COc1cc(NC(=O)CSc2cc(C)c3cc(C)cc(C)c3n2)c(C(=O)O)cc1OC`, the “activity change, negative = inhibition” value was inactive: 0.21%.
With `c1ccc(CNc2nc(-c3cccs3)nc3ccccc23)nc1` the Potency was inconclusive: 39.8 µM [inhibitor, single point].
`CN(CC(=O)NC(=O)NCc1ccccc1)Cc1ccc(Cl)cc1` was tested, and the Potency was inconclusive: 12.6 µM [inhibitor, partial curve].
With `COc1ccc(-c2cc(C(F)F)n3ncc(C(=O)NCCCN4CCCC4=O)c3n2)cc1` the Potency was inconclusive: 10 µM [inhibitor, partial curve].
`COc1ccc(/C=N/NC(=O)c2ccc(COc3ccccc3Cl)o2)c(OC)c1C` was tested, and the Potency was inconclusive: 35.5 µM [inhibitor, single point].
`CCCCN(C)C(=S)Nc1ccc2nc(N3CCN(CC)CC3)cc(C)c2c1` was tested, and the Potency was inconclusive: 12.6 µM [inhibitor, partial curve].
With `NS(=O)(=O)c1ccc(N/C=C\C(=O)c2ccc(F)cc2)cc1` the Potency was inconclusive: 17.8 µM [inhibitor, single point].
In the case of `O=C(Nc1ccccc1Cl)N1CCN(c2ccc3nnc(-c4ccc(F)cc4)n3n2)CC1`, the Potency is reported as inconclusive: 35.5 µM [inhibitor, single point].
With `COc1cc(CCC(O)CC(=O)CCc2ccccc2)ccc1O` (stereo not given) the “activity change, negative = inhibition” value was inactive: -1.6%.
For `CCN(CC)CCOC(=O)c1ccc(NC(=O)c2cn(-c3ccccc3)nc2-c2cccs2)cc1`, the Potency was inconclusive: 25.1 µM [inhibitor, single point].
With `O=C(Nc1ccc(-n2cnnn2)cc1)C(c1ccccc1)c1ccccc1` the Potency was inconclusive: 17.8 µM [inhibitor, partial curve].
With `O=C1CCCc2c1cc(C(=O)NCCCN1CCOCC1)c(=O)n2-c1ccc(Cl)cc1` the Potency was inconclusive: 31.6 µM [inhibitor, single point].
In the case of `O=C(NC(Cc1ccccc1)C(=O)N1CCN(c2ccccn2)CC1)c1ccco1` (stereo not given), the Potency is reported as inconclusive: 31.6 µM [inhibitor, single point].
In the case of `O=C(Nc1ccccc1)c1cc([N+](=O)[O-])ccc1NCc1cccnc1`, the “activity change, negative = inhibition” value is reported as inactive: 4.51%.
With `CCOc1ccc(C2NC(=O)C(C#N)=C(S)N2c2ccc(C)cc2)cc1OC` (stereo not given) the “activity change, negative = inhibition” value was inactive: -3.44%.
`Cc1cc(C(F)(F)F)n(-c2nc(C(=O)O)cs2)n1` was tested, and the Potency was inconclusive: 22.4 µM [inhibitor, single point].
With `CCCCC[C@H](O)/C=C/[C@@H]1[C@@H](C/C=C\CCCC(=O)O)[C@H](O)C[C@H]1O` the “activity change, negative = inhibition” value was inactive: -3.08%.
In the case of `COc1cc2c(cc1NC(=O)/C=C/c1cc(OC)c(OC)c(OC)c1)oc1ccccc12`, the Potency is reported as inconclusive: 28.2 µM [inhibitor, single point].
With `Cc1cc(OCC(=O)C(C)(C)C)c2c(C)c(C)c(=O)oc2c1` the Potency was inconclusive: 2.51 µM [inhibitor, partial curve].
`CCSc1nnc(NC(=O)c2cccc3ccccc23)s1` was tested, and the Potency was inconclusive: 31.6 µM [inhibitor, partial curve].
For `C/C(=N\NC1=NCCN1)c1ccc(N)c([N+](=O)[O-])c1`, the “activity change, negative = inhibition” value was inactive: 8.16%.
For `COC(=O)C1CCN(Cc2cc(=O)oc3cc(OC)ccc23)CC1`, the Potency was inconclusive: 28.2 µM [inhibitor, partial curve].
`O=C1c2ccccc2-c2n[nH]c3cccc1c23` was tested, and the Potency was inconclusive: 12.6 µM [inhibitor, full curve, poor fit].
With `COc1ccc(OC)c(NC(=O)c2cnc(Nc3ccccc3OC)c3ccccc23)c1` the Potency was inconclusive: 35.5 µM [inhibitor, single point].
In the case of `CCCCn1c(=O)c(CCC(=O)O)nc2ccccc21`, the Potency is reported as inconclusive: 22.4 µM [inhibitor, partial curve].
In the case of `COc1ccc(Nc2nc3[nH]c(=O)cc(O)c3s2)cc1`, the “activity change, negative = inhibition” value is reported as inactive: -4.05%.
In the case of `CCN(CC)c1ccc(/C=N/NC(=O)c2cccc(S(=O)(=O)Nc3ccccc3OC)c2)cc1`, the Potency is reported as inconclusive: 22.4 µM [inhibitor, single point].
For `CCCCNC(=S)Nc1ccc(-c2nc3ccc(C)cc3s2)cc1`, the Potency was inconclusive: 25.1 µM [inhibitor, partial curve].
For `Cc1nnc(SCC(=O)N/N=C/c2cc(Cl)c(O)c(Cl)c2)s1`, the Potency was inconclusive: 39.8 µM [inhibitor, single point].
`NC(=S)N=Nc1c(O)[nH]c2cc(F)c(F)cc12` was tested, and the “activity change, negative = inhibition” value was inactive: -3.92%.
For `CCCc1nc2oc3c(NCCN(C)C)ncnc3c2c2c1CCCC2`, the Potency was inconclusive: 25.1 µM [inhibitor, partial curve].
`CCOC(=O)C1CCCN(CC(O)COCc2ccc3c(c2)OCO3)C1` (stereo not given) was tested, and the Potency was inconclusive: 22.4 µM [inhibitor, single point].
`Cc1cccc2sc(NC(=O)C3CCCO3)nc12` (stereo not given) was tested, and the “activity change, negative = inhibition” value was inactive: 3.4%.
For `CN(C)/N=C/c1ccc(N2CCOCC2)cc1`, the Potency was inconclusive: 39.8 µM [inhibitor, single point].
In the case of `CCCCNC(=O)Nc1ccnn1C1CCCCC1`, the “activity change, negative = inhibition” value is reported as inactive: 1.53%.
With `O=C(Nc1ccc(Cl)cc1)N1CCN(c2ccc3nnc(-c4ccc(F)cc4)n3n2)CC1` the Potency was inconclusive: 31.6 µM [inhibitor, single point].
With `CC(C)[C@H](CO)Nc1nc(Nc2cc(N)cc(Cl)c2)c2ncn(C(C)C)c2n1` the Potency was inconclusive: 35.5 µM [inhibitor, single point].
With `O=C1CCCC2=C1C(c1ccc(O)cc1)c1c(ccc3ccccc13)N2` (stereo not given) the Potency was inconclusive: 31.6 µM [inhibitor, partial curve].
In the case of `CCc1cc(=O)oc2cc(OCC(=O)O)c(Cl)cc12`, the Potency is reported as inconclusive: 28.2 µM [inhibitor, partial curve].
With `Cc1ccc(S(=O)(=O)N(C)C)cc1NC(=O)COC(=O)/C=C/c1ccc2c(c1)OCO2` the Potency was inconclusive: 35.5 µM [inhibitor, partial curve].
In the case of `CCOC(=O)c1sc2nc(-c3ccco3)c3c(c2c1N)CC(C)(C)OC3`, the Potency is reported as inconclusive: 28.2 µM [inhibitor, single point].
`Cc1cc(O)c(C=Nc2ccc(Cl)cn2)c(=O)o1` was tested, and the Potency was inconclusive: 39.8 µM [inhibitor, single point].
In the case of `CCS(=O)(=O)N1CCN(c2ccc(S(=O)(=O)N3CCOCC3)cc2)CC1`, the Potency is reported as inconclusive: 39.8 µM [inhibitor, single point].
With `Cc1cccc(NC(=O)CSc2nc(N)c(NC(=O)c3cccs3)c(=O)[nH]2)c1C` the “activity change, negative = inhibition” value was inactive: 2.58%.
`Cc1c(O)ccc2c(CN3CCN(C/C=C/c4ccccc4)CC3)cc(=O)oc12` was tested, and the Potency was inconclusive: 31.6 µM [inhibitor, partial curve].
In the case of `COc1ccccc1-c1ccc(/C=C2\C=CC(=O)O2)o1`, the Potency is reported as inconclusive: 20 µM [inhibitor, single point].
In the case of `N#Cc1c(-c2ccc(Cl)cc2)ccnc1N1CCOCC1`, the Potency is reported as inconclusive: 35.5 µM [inhibitor, single point].
For `CCC(Sc1nc(-c2ccccc2)c(C#N)c(=O)[nH]1)C(=O)Nc1cc(C)on1` (stereo not given), the “activity change, negative = inhibition” value was inactive: 2.56%.
